Results published in a collection of fitness landscapes (doi:10.1126/science.1257360).
Some of the results follow.

B1: PhoQ; a variant is named by its letters at X, in order, P23837 (parent)
chain: MKKLLRLFFPLSLRVRFLLATAAVVLVLSLAYGMVALIGYSVSFDKTTFRLLRGESNLFYTLAKWENNKLHVELPENIDKQSPTMTLIYDENGQLLWAQRDVPWLMKMIQPDWLKSNGFHEIEADVNDTSLLLSGDHSIQQQLQEVREDDDDAEMTHSVAVNVYPATSRMPKLTIVVVDTIPVELKSSYMVWSWFIYVLSANLLLVIPLLWVAAWWSLRPIEALAKEVRELEEHNRELLNPATTRELTSLVRNLNRLLKSERERYDKYRTTLTDLTHSLKTPLXXLQXXLRSLRSEKMSVSDAEPVMLEQISRISQQIGYYLHRASMRGGTLLSRELHPVAPLLDNLTSALNKVYQRKGVNISLDISPEISFVGEQNDFVEVMGNVLDNACKYCLEFVEISARQTDEHLYIVVEDDGPGIPLSKREVIFDRGQRVDTLRPGQGVGLAVAREITEQYEGKIVAGESMLGGARMEVIFGRQHSAPKDE

Variants of: B1
Assay: enrichment ratio after two sorts for PhoP signalling (ratio (wild type AVST 3.29)); higher = more functional
Conditions: with PhoP (E. coli)

| Variant | enrichment ratio |
| --- | --- |
| RGLN | ≤ 0.25 |
| GPPM | ≤ 0.25 |
| AQEF | ≤ 0.25 |
| REHS | ≤ 0.25 |
| NGRD | ≤ 0.25 |
| LHRI | ≤ 0.25 |
| PYRI | ≤ 0.25 |
| HGGT | ≤ 0.25 |
| QQFD | ≤ 0.25 |
| VNFG | ≤ 0.25 |
| HHPP | ≤ 0.25 |
| DITH | ≤ 0.25 |
| FWLP | ≤ 0.25 |
| ILHV | ≤ 0.25 |
| FLPI | ≤ 0.25 |
| FWCH | ≤ 0.25 |
| AYIK | ≤ 0.25 |
| RDHT | ≤ 0.25 |
| PLLI | ≤ 0.25 |
| RYFA | ≤ 0.25 |
| RWPN | ≤ 0.25 |
| SMTD | ≤ 0.25 |
| WMAH | ≤ 0.25 |
| VLLE | ≤ 0.25 |
| EPWR | ≤ 0.25 |
| GASN | ≤ 0.25 |

| Variant | enrichment ratio |
| --- | --- |
| YPSN | ≤ 0.25 |
| RPCH | ≤ 0.25 |
| IDDK | ≤ 0.25 |
| YIEP | ≤ 0.25 |
| RRIW | ≤ 0.25 |
| YGAI | ≤ 0.25 |
| RDLS | ≤ 0.25 |
| IGWP | ≤ 0.25 |
| TLCQ | 0.491 |
| SMDE | ≤ 0.25 |
| SGWL | 0.434 |
| FAEM | ≤ 0.25 |
| GQGG | ≤ 0.25 |
| IWPS | ≤ 0.25 |
| IGMY | ≤ 0.25 |
| ERRN | ≤ 0.25 |
| FSKT | ≤ 0.25 |
| NSGP | ≤ 0.25 |
| WQTG | ≤ 0.25 |
| DDYS | ≤ 0.25 |
| SHVG | ≤ 0.25 |
| FGPS | ≤ 0.25 |
| PKGL | ≤ 0.25 |
| AGRK | ≤ 0.25 |
| VTLC | 9.1 |
| TGDF | ≤ 0.25 |

| Variant | enrichment ratio |
| --- | --- |
| RSIR | ≤ 0.25 |
| EQRT | ≤ 0.25 |
| CQWS | ≤ 0.25 |
| REFD | ≤ 0.25 |
| FIWD | ≤ 0.25 |
| HNQK | ≤ 0.25 |
| DRAW | ≤ 0.25 |
| DDVE | ≤ 0.25 |
| QDLA | ≤ 0.25 |
| QSNY | 2.79 |
| VCAA | ≤ 0.25 |
| DHTL | ≤ 0.25 |
| EINK | ≤ 0.25 |
| SSSL | 12.5 |
| TPLT | ≤ 0.25 |
| IGEH | ≤ 0.25 |
| LFYT | ≤ 0.25 |
| FGHK | ≤ 0.25 |
| TQQW | ≤ 0.25 |
| PEFA | ≤ 0.25 |
| VKQA | ≤ 0.25 |
| YPIV | ≤ 0.25 |
| HYGV | ≤ 0.25 |
| FMIE | ≤ 0.25 |
| LMTF | ≤ 0.25 |
| QKAQ | ≤ 0.25 |

| Variant | enrichment ratio |
| --- | --- |
| RSSE | ≤ 0.25 |
| DIRH | ≤ 0.25 |
| MAQV | ≤ 0.25 |
| FWTL | ≤ 0.25 |
| KLKQ | ≤ 0.25 |
| PVID | ≤ 0.25 |
| HIHP | ≤ 0.25 |
| KLAP | ≤ 0.25 |
| AFSS | ≤ 0.25 |
| HQSP | ≤ 0.25 |
| MLIA | ≤ 0.25 |
| WHQP | ≤ 0.25 |
| AQTW | ≤ 0.25 |
| PKPY | ≤ 0.25 |
| IIKK | ≤ 0.25 |
| YEGF | ≤ 0.25 |
| PPDE | ≤ 0.25 |
| YEHA | ≤ 0.25 |
| TGRT | ≤ 0.25 |
| QWLK | ≤ 0.25 |
| MHEL | ≤ 0.25 |
| TESR | 6.55 |
| PAMW | ≤ 0.25 |
| LEQS | ≤ 0.25 |
| EYIL | ≤ 0.25 |
| NWGW | ≤ 0.25 |

| Variant | enrichment ratio |
| --- | --- |
| MGDS | ≤ 0.25 |
| PFYM | ≤ 0.25 |
| ITYP | ≤ 0.25 |
| GYSG | ≤ 0.25 |
| KCDG | ≤ 0.25 |
| MMHC | ≤ 0.25 |
| FAWI | ≤ 0.25 |
| ALNA | ≤ 0.25 |
| SDWH | ≤ 0.25 |
| PEIQ | ≤ 0.25 |
| TCRW | ≤ 0.25 |
| GGIQ | ≤ 0.25 |
| YNGK | ≤ 0.25 |
| NMHW | ≤ 0.25 |
| DVHS | ≤ 0.25 |
| AAWN | ≤ 0.25 |
| GSPT | ≤ 0.25 |
| MAFC | ≤ 0.25 |
| PVHG | ≤ 0.25 |
| SITL | 18.5 |
| VGVI | ≤ 0.25 |
| IKHT | ≤ 0.25 |
| SDPM | ≤ 0.25 |
| DHRS | ≤ 0.25 |
| VLCN | ≤ 0.25 |
| YCSA | 0.351 |

| Variant | enrichment ratio |
| --- | --- |
| IELV | 1.31 |
| YPGV | ≤ 0.25 |
| PQYE | ≤ 0.25 |
| LRNQ | ≤ 0.25 |
| HEWR | ≤ 0.25 |
| KLYL | ≤ 0.25 |
| NVPW | ≤ 0.25 |
| MKKM | ≤ 0.25 |
| AYWH | ≤ 0.25 |
| SSNG | 1.43 |
| NCFD | ≤ 0.25 |
| QQRR | ≤ 0.25 |
| TTTH | 20.3 |
| GRKT | ≤ 0.25 |
| HWCA | ≤ 0.25 |
| DWVG | ≤ 0.25 |
| TCWK | ≤ 0.25 |
| RHIV | ≤ 0.25 |
| EHTK | ≤ 0.25 |
| THRL | ≤ 0.25 |
| WCTW | ≤ 0.25 |
| WCFE | ≤ 0.25 |
| GASI | ≤ 0.25 |
